# Out of some 3,200 compounds screened, about 300 (9.4%) showed activity. Only a part is listed here, and it is no random draw.
# System: A673/TR/shEF
# Assay: cell viability (LOESS-normalised, relative to median of negative controls) (log2 ratio); higher = more viable cells (less compound effect), active = hit call of the paper (over 3 MAD below the median)
# Conditions: treatment time: 72 h
# In short: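 Viability of A673/TR/shEF Ewing sarcoma cells was determined by CellTiter-Glo luminescence. The cells, at 1,500 per well in 384-well plates, were grown with or without doxycycline from 24 h before compound addition to switch on EWS-FLI1 shRNA knockdown, then exposed for three days to library compounds at two or more concentrations or to DMSO controls. Signals were LOESS-corrected plate by plate, normalised to the negative-control median and log2-transformed.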
# [1] = 0.103 µM, library screen: screen3, EWS-FLI1 expression: high (no doxycycline)
# [2] = 0.103 µM, library screen: screen3, EWS-FLI1 expression: low (doxycycline-induced shRNA knockdown)
# [3] = 0.25 µM, library screen: screen1, EWS-FLI1 expression: high (no doxycycline)
# [4] = 0.25 µM, library screen: screen1, EWS-FLI1 expression: low (doxycycline-induced shRNA knockdown)
# [5] = 0.25 µM, library screen: screen2, EWS-FLI1 expression: high (no doxycycline)
# [6] = 0.25 µM, library screen: screen2, EWS-FLI1 expression: low (doxycycline-induced shRNA knockdown)
# [7] = 0.308 µM, library screen: screen3, EWS-FLI1 expression: high (no doxycycline)
# [8] = 0.308 µM, library screen: screen3, EWS-FLI1 expression: low (doxycycline-induced shRNA knockdown)
# [9] = 0.926 µM, library screen: screen3, EWS-FLI1 expression: high (no doxycycline)
# [10] = 0.926 µM, library screen: screen3, EWS-FLI1 expression: low (doxycycline-induced shRNA knockdown)
# [11] = 2.5 µM, library screen: screen1, EWS-FLI1 expression: high (no doxycycline)
# [12] = 2.5 µM, library screen: screen1, EWS-FLI1 expression: low (doxycycline-induced shRNA knockdown)
# [13] = 2.5 µM, library screen: screen2, EWS-FLI1 expression: high (no doxycycline)
# [14] = 2.5 µM, library screen: screen2, EWS-FLI1 expression: low (doxycycline-induced shRNA knockdown)
# [15] = 2.8 µM, library screen: screen3, EWS-FLI1 expression: high (no doxycycline)
# [16] = 2.8 µM, library screen: screen3, EWS-FLI1 expression: low (doxycycline-induced shRNA knockdown)
# [17] = 8.3 µM, library screen: screen3, EWS-FLI1 expression: high (no doxycycline)
# [18] = 8.3 µM, library screen: screen3, EWS-FLI1 expression: low (doxycycline-induced shRNA knockdown)
# [19] = 25 µM, library screen: screen3, EWS-FLI1 expression: high (no doxycycline)
# [20] = 25 µM, library screen: screen3, EWS-FLI1 expression: low (doxycycline-induced shRNA knockdown)
compound,measurement,setting,value
CCN(CC)CC(=O)Nc1c(C)cccc1C,cell viability (log2),[1],inactive: 0.148
same,cell viability (log2),[2],inactive: 0.0138
same,cell viability (log2),[3],inactive: 0.147
same,cell viability (log2),[4],inactive: 0.00307
same,cell viability (log2),[5],inactive: 0.111
same,cell viability (log2),[6],inactive: 0.106
same,cell viability (log2),[7],inactive: 0.0507
same,cell viability (log2),[8],inactive: 0.127
same,cell viability (log2),[9],inactive: 0.13
same,cell viability (log2),[10],inactive: 0.0501
same,cell viability (log2),[11],inactive: 0.157
same,cell viability (log2),[12],inactive: 0.131
same,cell viability (log2),[13],inactive: 0.0975
same,cell viability (log2),[14],inactive: 0.0477
same,cell viability (log2),[15],inactive: 0.00489
same,cell viability (log2),[16],inactive: 0.0234
same,cell viability (log2),[17],inactive: 0.0246
same,cell viability (log2),[18],inactive: 0.018
same,cell viability (log2),[19],active: -0.278
same,cell viability (log2),[20],inactive: 0.0253
CC(=O)OCC(=O)[C@@]12OC(C)(C)O[C@@H]1C[C@H]1[C@@H]3C[C@H](F)C4=CC(=O)C=C[C@]4(C)[C@@]3(F)[C@@H](O)C[C@@]12C,cell viability (log2),[1],inactive: -0.0365
same,cell viability (log2),[2],inactive: 0.072
same,cell viability (log2),[3],inactive: 0.0987
same,cell viability (log2),[4],inactive: -0.355
same,cell viability (log2),[7],inactive: 0.00897
same,cell viability (log2),[8],inactive: 0.0601
same,cell viability (log2),[9],inactive: -0.0158
same,cell viability (log2),[10],inactive: 0.0416
same,cell viability (log2),[11],inactive: 0.179
same,cell viability (log2),[12],inactive: -0.443
same,cell viability (log2),[15],inactive: 0.0272
same,cell viability (log2),[16],inactive: 0.123
same,cell viability (log2),[17],inactive: -0.0208
same,cell viability (log2),[18],inactive: 0.152
same,cell viability (log2),[19],inactive: 0.0544
same,cell viability (log2),[20],inactive: 0.0922
c1ccc2c(CC3=NCCN3)cccc2c1,cell viability (log2),[1],inactive: 0.0858
same,cell viability (log2),[2],inactive: 0.112
same,cell viability (log2),[3],inactive: -0.0243
same,cell viability (log2),[4],inactive: -0.00825
same,cell viability (log2),[5],inactive: 0.00769
same,cell viability (log2),[6],inactive: 0.103
same,cell viability (log2),[7],inactive: 0.126
same,cell viability (log2),[8],inactive: -0.000103
same,cell viability (log2),[9],inactive: 0.0423
same,cell viability (log2),[10],inactive: 0.0423
same,cell viability (log2),[11],inactive: 0.143
same,cell viability (log2),[12],inactive: 0.0655
same,cell viability (log2),[13],inactive: 0.0414
same,cell viability (log2),[14],inactive: 0.0816
same,cell viability (log2),[15],inactive: 0.00847
same,cell viability (log2),[16],inactive: 0.0518
same,cell viability (log2),[17],inactive: -0.0245
same,cell viability (log2),[18],inactive: 0.0776
same,cell viability (log2),[19],inactive: 0.0649
same,cell viability (log2),[20],inactive: 0.0516
COC(=O)C1=CO[C@@H](C)[C@H]2CN3CCc4c([nH]c5ccccc45)[C@@H]3C[C@H]12,cell viability (log2),[3],inactive: 0.116
same,cell viability (log2),[4],inactive: 0.0192
same,cell viability (log2),[11],inactive: 0.164
same,cell viability (log2),[12],inactive: 0.0681
O=C(O)[C@@H]1C[C@H](C(=O)O)N1,cell viability (log2),[5],inactive: 0.144
same,cell viability (log2),[6],inactive: 0.11
same,cell viability (log2),[13],inactive: 0.17
same,cell viability (log2),[14],inactive: 0.113
NC(=O)NCCC[C@H](N)C(=O)O,cell viability (log2),[3],inactive: 0.1
same,cell viability (log2),[4],inactive: 0.0189
same,cell viability (log2),[11],inactive: 0.199
same,cell viability (log2),[12],inactive: 0.0391
COc1ccc(-c2coc3cc(OC(C)=O)cc(OC(C)=O)c3c2=O)cc1,cell viability (log2),[3],inactive: 0.0854
same,cell viability (log2),[4],inactive: -0.00831
same,cell viability (log2),[11],inactive: 0.156
same,cell viability (log2),[12],inactive: 0.114
NC(N)=NC(=O)c1nc(Cl)c(N)nc1N,cell viability (log2),[1],inactive: 0.1
same,cell viability (log2),[2],inactive: -0.00692
same,cell viability (log2),[3],inactive: 0.092
same,cell viability (log2),[4],inactive: 0.142
same,cell viability (log2),[5],inactive: 0.0653
same,cell viability (log2),[6],inactive: 0.188
same,cell viability (log2),[7],inactive: 0.116
same,cell viability (log2),[8],inactive: 0.0975
same,cell viability (log2),[9],inactive: 0.0536
same,cell viability (log2),[10],inactive: 0.066
same,cell viability (log2),[11],inactive: 0.116
same,cell viability (log2),[12],inactive: 0.199
same,cell viability (log2),[13],inactive: 0.119
same,cell viability (log2),[14],inactive: 0.111
same,cell viability (log2),[15],inactive: 0.129
same,cell viability (log2),[16],inactive: 0.0594
same,cell viability (log2),[17],inactive: 0.0568
same,cell viability (log2),[18],inactive: 0.0415
same,cell viability (log2),[19],inactive: 0.0877
same,cell viability (log2),[20],inactive: 0.0677
O=c1oc2c(O)c(O)cc3c(=O)oc4c(O)c(O)cc1c4c23,cell viability (log2),"0.025 µM, library screen: screen2, EWS-FLI1 expression: high (no doxycycline)",inactive: 0.118
same,cell viability (log2),"0.025 µM, library screen: screen2, EWS-FLI1 expression: low (doxycycline-induced shRNA knockdown)",inactive: 0.022
same,cell viability (log2),[3],inactive: 0.026
same,cell viability (log2),[4],inactive: 0.00636
same,cell viability (log2),[5],inactive: -0.0123
same,cell viability (log2),[6],inactive: 0.0256
same,cell viability (log2),[11],inactive: 0.0418
same,cell viability (log2),[12],inactive: -0.000232
same,cell viability (log2),[13],inactive: 0.167
same,cell viability (log2),[14],inactive: 0.128
same,cell viability (log2),"25 µM, library screen: screen2, EWS-FLI1 expression: high (no doxycycline)",inactive: 0.149
same,cell viability (log2),"25 µM, library screen: screen2, EWS-FLI1 expression: low (doxycycline-induced shRNA knockdown)",inactive: 0.0448
CC(=O)CC(c1ccccc1)c1c(O)c2ccccc2oc1=O (stereo not given),cell viability (log2),[3],inactive: 0.0115
same,cell viability (log2),[4],inactive: 0.135
same,cell viability (log2),[11],inactive: 0.146
same,cell viability (log2),[12],inactive: 0.078
NS(=O)(=O)c1cc2c(cc1Cl)NC(C1CC3C=CC1C3)NS2(=O)=O (stereo not given),cell viability (log2),[5],inactive: 0.131
same,cell viability (log2),[6],inactive: 0.0709
same,cell viability (log2),[13],inactive: 0.0922
same,cell viability (log2),[14],inactive: 0.118
O=C1NS(=O)(=O)c2ccccc21,cell viability (log2),[3],inactive: 0.0666
same,cell viability (log2),[4],inactive: -0.0216
same,cell viability (log2),[11],inactive: 0.209
same,cell viability (log2),[12],inactive: 0.00514
S=C(S)N1CCCC1,cell viability (log2),[5],inactive: 0.191
same,cell viability (log2),[6],inactive: 0.0323
same,cell viability (log2),[13],inactive: 0.234
same,cell viability (log2),[14],inactive: 0.0843

# Reference: the supplement of paper PMC6089552
